Laboratory results from PubChem BioAssay (Tox21).
Several values for one entry are separate records, joined by “and”; a condition that tells them apart may be missing. Identical values can stand only once. The shares of active, inactive and inconclusive entries below differ from those in the screen. For part of these data: A potency beside an inconclusive call is a rough fit, not a confirmed value. Activity calls are given as the source filed them. Unless noted, the call rests on the fitted dose curve; in most records, active means well fitted curve in the direction sought with a large enough effect in the repeat runs; inconclusive means weak or mixed curves; inactive means no such curve, though single readings can be large; an effect the other way counts as inactive or inconclusive.

Columns and labels:
[1] = qHTS RealTime-Glo MT Cell Viability Assay in HepG2 cells - 24 hour (AID 1224867); settings: RealTime-Glo luminescence; series mostly up to 76.8 µM; further: nearly all actives have a fitted effect of over 50% in size; further: potency means the concentration at half of the fitted maximal effect; on activity change, negative = cytotoxicity: on the % scale 0 is the no-effect control and ±100 the full control effect
Summary of the method: (§1)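 Tox21 10K library screened in qHTS format on HepG2 cells carrying RealTime-Glo reagents. Compounds were added after a 5 h preincubation, and the luminescent signal from continuous culture was measured repeatedly during 40 h treatment.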

[2] = A CellTox Green Cytotoxicity Assay to monitor cytotoxicity in HepG2 cells - 24 hour (AID 1224878); settings: CellTox Green fluorescence; series mostly up to 76.8 µM; further: on the % scale 0 is the no-effect control and ±100 the full control effect; nearly all actives have a fitted effect of over 45% in size
Summary of the method: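 Fluorescent DNA-binding dye, 600 HepG2 cells/well, 5 h preincubation then compound in DMSO; same plates read at 0–40 h, 37 C.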

[3] = qHTS RealTime-Glo MT Cell Viability Assay in HepG2 cells - 40 hour (AID 1224870); settings: RealTime-Glo luminescence; series mostly up to 76.8 µM; further: potency means the concentration at half of the fitted maximal effect; nearly all actives have a fitted effect of over 50% in size
Summary of the method: (§2)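 HepG2 cells (600/well) mixed with RealTime-Glo MT reagent, settled 5 h at 37 C/5% CO2 before compound addition. Nonlytic NanoLuc luminescence from viable-cell prosubstrate reduction read repeatedly during 40 h treatment at 37 C.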

[4] = qHTS RealTime-Glo MT Cell Viability Assay in HepG2 cells - 32 hour (AID 1224877); settings: RealTime-Glo luminescence; series mostly up to 76.8 µM; further: potency means the concentration at half of the fitted maximal effect; nearly all actives have a fitted effect of over 55% in size
Summary of the method: as §1

[5] = qHTS RealTime-Glo MT Cell Viability Assay in HEK293 cells - 0 hour (AID 1224880); settings: RealTime-Glo luminescence; series mostly up to 76.8 µM; further: potency means the concentration at half of the fitted maximal effect; nearly all actives have a fitted effect of over 45% in size
Summary of the method: (§3)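 Measured as luminescence from the same continuously cultured HEK293 wells at successive time points (0, 8, 16, 24, 32, 40 h) after compound addition. Reagent present from seeding; dosing at 5 h; incubation 37 C.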

[6] = qHTS RealTime-Glo MT Cell Viability Assay in HEK293 cells - 32 hour (AID 1224868); settings: RealTime-Glo luminescence; series mostly up to 76.8 µM; further: nearly all actives have a fitted effect of over 50% in size; further: potency means the concentration at half of the fitted maximal effect
Summary of the method: (§4)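 Luminescence generated by NanoLuc from substrate produced by living HEK293 cells served as the viability signal. Each value reflects the reading at its stated time point during continuous 40 h compound exposure at 37 C.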

[7] = qHTS RealTime-Glo MT Cell Viability Assay in HEK293 cells - 16 hour (AID 1224872); settings: RealTime-Glo luminescence; series mostly up to 76.8 µM; further: potency means the concentration at half of the fitted maximal effect; nearly all actives have a fitted effect of over 50% in size
Summary of the method: as §4

[8] = qHTS RealTime-Glo MT Cell Viability Assay in HepG2 cells - 8 hour (AID 1224873); settings: RealTime-Glo luminescence; series mostly up to 76.8 µM; further: potency means the concentration at half of the fitted maximal effect; nearly all actives have a fitted effect of over 55% in size
Summary of the method: as §2

[9] = qHTS RealTime-Glo MT Cell Viability Assay in HEK293 cells - 40 hour (AID 1224874); settings: RealTime-Glo luminescence; max response: active compounds read low
Summary of the method: as §3

[10] = A CellTox Green Cytotoxicity Assay to monitor cytotoxicity in HEK293 cells - 24 hour (AID 1224875); settings: CellTox Green fluorescence; series mostly up to 76.8 µM; further: nearly all actives have a fitted effect of over 45% in size; further: potency means the concentration at half of the fitted maximal effect; on activity change: on the % scale 0 is the no-effect control and ±100 the full control effect
Summary of the method: (§5)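 Homogeneous no-lysis format: HEK293 cell suspension mixed with CellTox Green reagent, seeded, incubated 5 h at 37 C/5% CO2, then dosed by pintool with compound in DMSO.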

[11] = A CellTox Green Cytotoxicity Assay to monitor cytotoxicity in HEK293 cells - 32 hour (AID 1224881); settings: CellTox Green fluorescence; series mostly up to 76.8 µM; further: nearly all actives have a fitted effect of over 40% in size; further: potency means the concentration at half of the fitted maximal effect
Summary of the method: as §5

[12] = qHTS assay to identify small molecule antagonists of the estrogen related receptor (ERR) signaling pathway from Tox21 library (AID 1224848); settings: ERR reporter cell line, luciferase antagonist mode, 18 h; series mostly up to 92.4 µM
Summary of the method: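 Compounds dissolved in DMSO are pin-transferred onto ERR reporter cells (2,000 per well) that have settled for 6 h at 37 C. Plates then incubate 18 h at 37 C before ONE-Glo luciferase reagent and a luminescence read 30 min later.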

[13] = qHTS assay to identify small molecule agonists of the estrogen related receptor (ERR) signaling pathway from Tox21 library (AID 1224849; calls by dose curve; further: on the % scale 0 is the no-effect control and ±100 the full control effect; nearly all actives have a fitted effect of over 15% in size); settings: ERR reporter cell line, ONE-Glo luciferase, 18 h
Summary of the method: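 Reporter cells (ERR, NTP source) treated with Tox21 10K compounds 18 h, 37 C. Readout: ONE-Glo luminescence, 30 min RT.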

[14] = A CellTox Green Cytotoxicity Assay to monitor cytotoxicity in HEK293 cells - 40 hour (AID 1224871); settings: CellTox Green fluorescence; series mostly up to 76.8 µM; further: nearly all actives have a fitted effect of over 45% in size; further: potency means the concentration at half of the fitted maximal effect
Summary of the method: as §5
Tags describe the fitted curve by direction and shape.

CCCCCCCCCCCCCCCC(=O)OC
activity change, negative = cytotoxicity [1]: inactive: -0.801% [at 15.8 µM] | cytotoxicity [2]: inactive: -19.7% [at 15.8 µM]

Cc1cc(C2(c3cc(C)c(O)cc3C)OS(=O)(=O)c3ccccc32)c(C)cc1O
Potency [1]: inconclusive: 38.9 µM [falling, partial curve] and inconclusive: 24.5 µM [falling, partial curve] | Potency [3]: inconclusive: 24.5 µM [falling, partial curve] | Potency [4]: inconclusive: 24.6 µM [cytotoxic, partial curve, poor fit] and inconclusive: 21.9 µM [cytotoxic, partial curve] | Potency [5]: active: 27.5 µM and active: 24.5 µM

CCC(C)COC(C)=O (centres undefined)
Potency [6]: inactive

CCCCCCCCOc1ccccc1C(=O)Nc1ccc(C(=O)OCC[N+](C)(CC)CC)cc1
Potency [1]: inconclusive: 21.3 µM [falling, partial curve] | Potency [6]: active: 19 µM | Potency [7]: inconclusive: 16.9 µM [cytotoxic, partial curve] | Potency [8]: inconclusive: 26.8 µM [falling, partial curve] | Potency [9]: active: 21.3 µM | Potency [10]: active: 23.9 µM | Potency [4]: inconclusive: 21.3 µM [cytotoxic, partial curve, poor fit] | Potency [5]: inconclusive: 26.8 µM [rising, partial curve, poor fit] | Potency [11]: active: 23.9 µM

CC1(C)S[C@@H]2[C@H](NC(=O)C(c3ccccc3)S(=O)(=O)O)C(=O)N2[C@H]1C(=O)O (some centres undefined)
Potency [1]: inactive

O=C(O)CCNC(=O)c1ccccc1
Potency [6]: inactive

COc1cc(C(=O)NC2CCCNC2)cc(OC)c1OC (centres undefined)
Potency [1]: inconclusive: 26.8 µM [falling, single point] | Potency [6]: inactive | Potency [3]: inconclusive: 26.8 µM [falling, single point] | Potency [8]: inconclusive: 26.8 µM [falling, single point] | Potency [4]: inconclusive: 26.8 µM [cytotoxic, single point]

CC1Cc2ccccc2N1NC(=O)c1ccc(Cl)c(S(N)(=O)=O)c1 (centres undefined)
Potency [12]: inconclusive: 23.7 µM [inhibitor, partial curve] | Potency [11]: inactive

O=c1[nH]c2ccc(Cl)cc2o1
Potency [6]: inactive

C[N+](C)(C)CC[N+]1(C)Cc2c(Cl)c(Cl)c(Cl)c(Cl)c2C1
Potency [1]: inconclusive: 26.8 µM [falling, single point] | Potency [6]: inactive | Potency [3]: active: 23.9 µM | Potency [4]: inconclusive: 26.8 µM [cytotoxic, single point]

Cc1cc(N)n(-c2ccccc2)n1
activity change, positive = activation ([13]; at 92.4 µM (top of the series)): inconclusive: 17.2% | Potency [2]: inactive

CC(C)C[C@H](NC(=O)[C@H](CCc1ccccc1)NC(=O)CN1CCOCC1)C(=O)N[C@@H](Cc1ccccc1)C(=O)N[C@@H](CC(C)C)C(=O)[C@@]1(C)CO1
Potency [1]: active: 0.0674 µM | Potency [14]: active: 0.0756 µM | Potency [7]: inconclusive: 0.169 µM [cytotoxic, full curve] | Potency [4]: active: 0.0268 µM | Potency [11]: active: 0.301 µM

O=C(O)c1cc(=O)[nH]c(=O)[nH]1
activity change, positive = activation ([13]; at 42.5 µM (top of the series)): inconclusive: 18.5%

COc1c(N2C[C@@H]3CCCN[C@@H]3C2)c(F)cc2c(=O)c(C(=O)O)cn(C3CC3)c12
activity change, positive = activation ([13]; at 42.5 µM (top of the series)): inconclusive: 15.7% | Potency [14]: inactive

CCC(=O)OC
Potency [1]: inactive

CCCCCCCCOc1ccc(C(=O)O)cc1
Potency [6]: inactive

CCCCCCOC(=O)NC(=N)c1ccc(NCc2nc3cc(C(=O)N(CCC(=O)OCC)c4ccccn4)ccc3n2C)cc1
Potency [1]: inconclusive: 23.9 µM [falling, partial curve] | Potency [6]: active: 10.7 µM | Potency [4]: inconclusive: 26.8 µM [cytotoxic, partial curve, poor fit] | Potency [5]: inconclusive: 26.8 µM [falling, partial curve, poor fit]

CC[C@H]1OC(=O)[C@H](C)[C@@H](O[C@H]2C[C@@](C)(OC)[C@@H](O)[C@H](C)O2)[C@H](C)[C@@H](O[C@@H]2O[C@H](C)C[C@H](N(C)C)[C@H]2O)[C@](C)(O)C[C@@H](C)C(=O)[C@H](C)[C@@H](O)[C@]1(C)O
Potency [1]: inactive | Potency [6]: inactive

O=C(/C=C/c1ccccc1)OCCCc1ccccc1
activity change, positive = activation ([13]; at 92.4 µM (top of the series)): inconclusive: 12.9% | Potency [10]: inactive

NCCc1cnc[nH]1
Potency [1]: inactive | Potency [2]: inactive

C=C/C(C)=C/C/C=C(\C)CCC=C(C)C
Potency [12]: inconclusive: 43.3 µM [inhibitor, partial curve] | Potency [2]: inactive
